Measured values published in article PMC4336329 (PLoS ONE, 2015).
Screen size: about 310,000 compounds; about 14,000 (4.5%) showed an effect of 50% or more. Effects have a minus sign here. Some of the results follow.

The compounds below were run against human ether-à-go-go-related gene (hERG) potassium channel (human, UniProt Q12809) (assay: primary screen, population patch clamp on CHO cells stably expressing hERG).
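Also: peak tail current of the secondary pulse compared with the same well before compound.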

Sequence of human ether-à-go-go-related gene (hERG) potassium channel (Q12809 whole entry, looked up): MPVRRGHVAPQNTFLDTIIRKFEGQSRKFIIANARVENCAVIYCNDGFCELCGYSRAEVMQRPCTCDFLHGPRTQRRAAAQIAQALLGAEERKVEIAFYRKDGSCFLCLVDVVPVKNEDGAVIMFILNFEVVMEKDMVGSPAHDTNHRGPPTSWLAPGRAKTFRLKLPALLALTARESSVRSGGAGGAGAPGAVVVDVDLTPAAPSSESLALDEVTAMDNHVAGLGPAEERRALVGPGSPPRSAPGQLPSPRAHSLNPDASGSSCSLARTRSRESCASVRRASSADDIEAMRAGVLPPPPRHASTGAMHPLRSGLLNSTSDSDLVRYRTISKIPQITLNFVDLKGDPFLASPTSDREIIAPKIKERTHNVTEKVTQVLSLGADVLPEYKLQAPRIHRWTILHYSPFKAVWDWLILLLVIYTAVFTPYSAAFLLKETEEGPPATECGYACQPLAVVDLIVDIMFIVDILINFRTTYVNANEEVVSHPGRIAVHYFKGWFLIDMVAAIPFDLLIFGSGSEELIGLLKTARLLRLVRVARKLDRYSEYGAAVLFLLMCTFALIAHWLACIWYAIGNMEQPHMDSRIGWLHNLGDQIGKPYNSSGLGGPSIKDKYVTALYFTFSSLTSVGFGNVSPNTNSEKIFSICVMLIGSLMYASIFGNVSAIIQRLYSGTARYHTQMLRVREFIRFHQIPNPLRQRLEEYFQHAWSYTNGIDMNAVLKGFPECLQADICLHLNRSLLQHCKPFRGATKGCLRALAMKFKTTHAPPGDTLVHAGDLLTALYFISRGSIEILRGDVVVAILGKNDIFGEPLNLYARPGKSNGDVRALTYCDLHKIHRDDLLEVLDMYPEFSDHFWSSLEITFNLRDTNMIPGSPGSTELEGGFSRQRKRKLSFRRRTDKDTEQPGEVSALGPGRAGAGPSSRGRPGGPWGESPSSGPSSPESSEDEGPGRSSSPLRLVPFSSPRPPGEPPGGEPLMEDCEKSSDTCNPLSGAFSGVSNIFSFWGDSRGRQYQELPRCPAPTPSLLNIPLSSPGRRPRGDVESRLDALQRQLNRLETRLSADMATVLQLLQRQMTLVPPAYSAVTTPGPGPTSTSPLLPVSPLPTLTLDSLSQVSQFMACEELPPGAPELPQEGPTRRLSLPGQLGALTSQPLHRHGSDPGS

In order of falling “hERG current change (%, negative = inhibition) at 10uM” value:
1. COC(=O)c1ccc(NC(=S)NNC(=O)c2ccccc2)cc1  29.3%
2. CN(C)/C=C(\C=O)c1c(Cl)cccc1Cl  23.5%
3. Cc1ccc(SCC(=O)OC(C)C(=O)Nc2ccc(S(N)(=O)=O)cc2)cc1C (stereo not shown)  22.9%
4. O=C(Nc1nc(-c2cc(F)ccc2F)cs1)c1ccccn1  22.6%
5. Cc1ccc(C2=NNC3(CCOC(C)(C)C3)S2)cc1 (stereo not shown)  22%
6. Cc1nc(SCCO)c([N+](=O)[O-])[nH]1  21%
7. O=C(COC(=O)c1cccc(S(=O)(=O)N2CCN(c3ccc(F)cc3)CC2)c1)NCC1CCCO1 (stereo not shown)  19.9%
8. N#C/C(=C(/O)CO/N=C/c1ccccc1Cl)c1nc2ccccc2[nH]1  19.8%
9. COc1cccc(NC(=O)Cn2nnc(C(=O)NCc3cccs3)c2N)c1  18.4%
10. COc1cccc(C2/C(=C(/O)c3ccc(F)cc3)C(=O)C(=O)N2CCN(C)C)c1 (stereo not shown)  18.1%
11. NCCc1c[nH]c2ccccc12  18%
12. CCOc1cc(/C=N/NC(=O)CNc2cccc(C)c2)ccc1OC(=O)c1ccccc1  17.3%
13. O=C1N[C@@H](Cc2ccccc2)C(=O)N1CCN1CCOCC1  16.8%
14. O=C(NCCN=C1NS(=O)(=O)c2ccccc21)c1ccccc1  16.6%
15. O=C(NCc1ccc2c(c1)OCO2)C1CCC(CNc2c(N3CCCC3)c(=O)c2=O)CC1 (stereo not shown)  15.8%
16. CC(C)c1oc(=O)cc2c1[C@@H](O)[C@H]1OC(=O)[C@@]3(C)C[C@@H](O)[C@@H](O)[C@@]2(C)C13 (stereo partly shown)  15.8%
17. CNC(=O)c1c(NC(=O)c2cccc(C)c2)sc2c1CCC2  15.4%
18. Cn1c(=NC(=O)C2=NNC(=O)CC2)sc2ccccc21  15.2%
19. CCCNC(=O)COC(=O)c1cc(C)nc2ccccc12  14.7%
20. CCCOc1ccc(/C(O)=C2/C(=O)C(=O)N(CCN(C)C)C2c2ccc(OC)c(OC)c2)cc1 (stereo not shown)  14%
21. O=c1[nH]c2ccccc2n2c(C(F)(F)F)nnc12  14%
22. Cn1c(NNC(=O)C2CCCCC2)cc(=O)n(C)c1=O  13.4%
23. CCOc1ccc(S(=O)(=O)NCc2ccc3c(c2)OCO3)cc1C  13%
24. FC(F)(F)c1nc(NCc2ccccc2)c2nnn(Cc3ccccc3)c2n1  12.7%
25. CCC(C)NC(=O)c1nn(C)c(=O)c2ccccc12 (stereo not shown)  12%
26. COc1ccc(NC(=S)NCc2ccccn2)cc1OC  11.9%
27. CC(C)OCC(O)CN1CCNCC1.Cl (stereo not shown)  11.6%
28. COc1cc(NC(=O)CCS(=O)(=O)c2ccc3c(c2)n(C)c(=O)c(=O)n3C)cc(OC)c1  11.2%
29. CC(=O)c1c(C)[nH]c(C(=O)CN2C(=O)NC(C)(CCC(C)C)C2=O)c1C (stereo not shown)  11.1%
30. CC(C)N(Cc1cnn(C)c1)Cc1nc(Cc2ccccc2Cl)no1  10.8%
31. CCOC(=O)C1=C(C)N(C)C(=S)NC1c1ccc(Cl)cc1Cl (stereo not shown)  9.9%
32. COc1ccccc1N(CC(=O)NCCN1CCOCC1)S(=O)(=O)c1ccccc1  9.76%
33. O=C(NCc1cccc(C(F)(F)F)c1)c1ccc2c(c1)OCCO2  9.52%
34. CN1C(=O)C(O)(C2OC(C)(C)CCC2=O)c2ccccc21 (stereo not shown)  9.08%
35. Cc1cc(C)c(C(=O)/C=C/C=C/c2ccccc2)c(=O)[nH]1  8.65%
36. C[C@H](NC(=O)[C@H]1N2C(=O)c3ccccc3C2SC1(C)C)C(=O)N1CCC[C@H]1CO (stereo partly shown)  7.57%
37. Oc1cccc(-n2nnnc2SCc2ccccc2F)c1  7.33%
38. CCOC(=O)C1CCCN(C(=O)c2ccccc2SCCOC)C1 (stereo not shown)  6.2%
39. NS(=O)(=O)c1ccc(NC(=S)NCc2cccc(Cl)c2)cc1  6.04%
40. CCOC(=O)c1c(C)oc2cc(Sc3ccccc3)c(O)c(O)c12  5.79%
41. O=C(NC(Cc1c[nH]c2ccccc12)C(=O)N/N=C/c1ccc(Cl)cc1)c1cccs1 (stereo not shown)  5.22%
42. CCCCN(CC)CCNc1c(NC2CCN(C(=O)OCC)CC2)c(=O)c1=O  5.12%
43. Cc1ccc(S(=O)(=O)N2CCC(C(=O)NN3CCCCC3)CC2)cc1  4.16%
44. Cc1ccccc1Cn1ccc(NC(=O)c2nc3ncccn3n2)n1  4.08%
45. COc1cccc(C(=O)NC2CCNCC2)c1  3.79%
46. Cc1ccc(NC(N)=S)cc1C  3.57%
47. O=C(CSc1nccc(-c2cccs2)n1)Nc1cccc(Cl)c1Cl  3.4%
48. COc1ccc(S(=O)(=O)NCc2cccs2)cc1  2.67%
49. Cc1cc(Cl)c(S(=O)(=O)N2CCN(c3ccccc3)CC2)cc1OCC(N)=O  2.35%
50. COc1cc(/C=C/c2ccc3c([N+](=O)[O-])cccc3n2)ccc1OCC(=O)O  2.25%
51. COc1cccc(/C=N/NC(=O)c2cc3cc([N+](=O)[O-])ccc3s2)c1O  2.07%
52. CN(CCOc1ccccc1)CC(=O)Nc1ccc(S(=O)(=O)N2CCCC2)cc1  1.66%
53. CCCCOc1ccc(C)cc1CN(CCO)CCO.Cl  1.6%
54. S=C(c1cn(Cc2ccccc2)c2ccccc12)N1CCOCC1  1.49%
55. CCc1ccccc1N1CC(C(=O)Nc2nccs2)CC1=O (stereo not shown)  1.46%
56. CC(C)C(NC(=O)c1ccc(C(C)(C)C)cc1)C(=O)NCc1ccccn1 (stereo not shown)  0.55%
57. Cc1ccc(-c2nnc(CSc3nc(C(C)C)nc4sc(C)c(C)c34)o2)cc1  -0.248%
58. COC(=O)c1ccccc1NC=C1C(=O)OC2(CCCCC2)OC1=O  -1.07%
59. CCOc1cc(NC(=S)Nc2cccc(OC)c2)c(OCC)cc1NC(=O)C1CC1  -1.5%
60. Cn1c(=O)c2c(SCCN3CCOCC3)nc(C3CCCC3)nc2n(C)c1=O  -2.12%
61. COc1ccccc1C(=O)NC(=O)COC(=O)c1ccc(Cl)nc1  -3.27%
62. CC1Cc2cc(-c3csc(NC(=O)Cc4ccccc4)n3)ccc2N1S(C)(=O)=O (stereo not shown)  -3.84%
63. CCCn1nc(C(=O)N2CCCc3ccccc32)c2ccccc2c1=O  -4.32%
64. COCCN(C(=O)CCC(=O)Nc1ccccn1)C(C(=O)NC(C)C)c1ccc(Cl)cc1 (stereo not shown)  -5.58%
65. O=C(c1cccs1)N1CCc2ccccc21  -5.59%
66. NS(=O)(=O)c1ccc(CNC(=O)/C=C/c2cccc(Cl)c2)cc1  -6.94%
67. CCN(CC)C(=O)c1ccc(NC(=O)CCCSc2ccccc2)cc1  -8.65%
68. COc1cccc(C2(CSc3nnc(-c4cc(OC)c(OC)c(OC)c4)o3)OCCO2)c1  -12.2%
69. CC(O)CNc1nc2c(c(=O)n(Cc3ccc(Br)cc3)c(=O)n2C)n1C (stereo not shown)  -12.6%
70. COc1ccc(C2C(C#N)=C(N)OC3=C2C(=O)CCC3)cc1Cn1nc(C)c([N+](=O)[O-])c1C (stereo not shown)  -13.3%
71. CCC(CC)C(=O)NCCc1cc2c(OC)ccc(OC)c2[nH]c1=O  -16.7%
72. O=C(NCC1OCCc2ccccc21)c1ccc(NC(=O)c2ccc(Cl)cc2)cc1 (stereo not shown)  -16.8%
73. O=C(COC(=O)C1CC2C=CC1C2)Nc1ccc2c(c1)OC(F)(F)O2 (stereo not shown)  -19.3%
74. CCn1c(SCC(=O)Nc2cccc(C)n2)nc2c1c(=O)n(C)c(=O)n2C  -23.7%
75. Cc1ccc(C)c(NC(=O)CCN2CCN(c3ccccc3F)CC2)c1  -25.1%
76. CC(C)=NOc1cc(NC(=O)CCl)cc([N+](=O)[O-])c1  -27.1%
77. COc1ccc(CN2CCN(C(=O)C3CCC(CNS(=O)(=O)c4ccc(C)cc4)CC3)CC2)c(OC)c1OC (stereo not shown)  -27.5%
78. CCc1ccc(N2CCN(C(=O)c3ccc(OC)c(OC)c3)CC2)cc1  -28.4%
79. CC1(CC(=O)NNC(=O)Nc2ccccc2)OCCCO1  -33.6%
80. Cc1c(C(=O)N(Cc2ccco2)Cc2cccs2)oc2ccccc12  -34.2%
81. COc1ccc(CN2CCC(C(=O)N3CCN(c4ccccc4F)CC3)CC2)cc1OC  -37%
82. CCOc1ccc(NC(=S)C(C#N)=C2N(C)c3ccccc3N2C)cc1  -38.8%
83. CN(C)c1cccc2c(C#N)ccc(N(C)C)c12  -42.4%
84. CC(C)(C)c1ccc(C(=O)Nc2ccc(S(=O)(=O)Nc3cnc4ccccc4n3)cc2)cc1  -45.1%
85. O=C(NCc1nc2ccccc2[nH]1)C1=C[C@@H](c2ccccc2)C[C@@H](OCCCCO)O1  -46.5%
86. O=C(CSc1nc2ccccc2c(=O)n1CCCN1CCOCC1)c1c[nH]c2ccccc12  -54%
87. CN=c1sc2ccccc2n1CC(O)COCc1ccco1 (stereo not shown)  -65.4%
88. CC(=O)Oc1ccc(-c2ccc(C(=O)OCC(=O)N(C)CC(=O)Nc3ccccc3Cl)cc2)cc1  -68.9%
